# Source: PubChem BioAssay AID686978 (National Center for Advancing Translational Sciences (NCATS), 2013)
# Values joined by “and” are separate entries in the source; they are usually repeats but may differ in a detail not shown here. Identical values can stand only once. Screen size: about 420,000 compounds; about 64,000 (15%) were called active. This list was built around the results that the source calls inconclusive (neither active nor inactive); the mix of calls is not that of the screen. The call rests on the fitted dose curve; in most records, active means well fitted inhibition curve with a large enough effect; inconclusive means small, poorly fitted or top-dose-only effect; inactive means flat fitted curve, though single readings scatter. Potencies of inconclusive entries are doubtful fits and often do not repeat.
# Assay: qHTS for Inhibitors of human tyrosyl-DNA phosphodiesterase 1 (TDP1): qHTS in cells in absence of CPT; further: nearly all actives have a fitted effect of over 55% in size
# Settings: DT40 Tdp1-/- hTDP1 cells, no CPT, ATP luminescence, 48 h; activity change, negative = growth inhibition: at 46.2 µM (top of the series) unless noted
# How it was run: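 Seeded 400 DT40-hTDP1 cells/well (vehicle DMSO, no 20 nM CPT); pinned compounds; ≥48 hr at 37 °C; CellTiter-Glo luminescence as viability measure.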
# On the % scale 0 is the no-effect control and ±100 the full control effect; potency means the concentration at half of the fitted maximal effect; tags describe the fitted curve by direction and shape.
SMILES,"activity change, negative = growth inhibition",Potency
CC(=O)Nc1ccc(SCC(=O)OCC(=O)NC(=O)NCCC(C)C)cc1,inactive: -0.776%,
Cc1ccc(S(=O)(=O)Nc2c(C)cc([N+](=O)[O-])cc2C)cc1,,"inconclusive: 9.2 µM [inhibitor, partial curve]"
Cc1cnc(-n2ncc(C(=O)N(C)C3CCOC3)c2C)nc1-c1ccc(F)cc1 (stereo not given),inactive: -9.69%,
CCOc1ccc(NC(=O)Cn2c(CCC(=O)O)ccc2-c2ccc(C)cc2)cc1,,"inconclusive: 25.9 µM [inhibitor, single point]"
Cc1cc(Cl)ccc1OCC(=O)Nc1cccc(S(=O)(=O)NC2=NCCCCC2)c1,,active: 18.4 µM
CCOC(=O)N1CCC(Nc2ccc3nnc(-c4ccccc4)n3n2)CC1,,"inconclusive: 29.1 µM [inhibitor, single point]"
Cc1noc(C)c1C(=O)OCC(=O)c1ccc[nH]1,inactive: -0.406%,
Oc1c(Br)cc(/C=N/n2c(-c3ccccc3)n[nH]c2=S)cc1Br,,"inconclusive: 29.1 µM [inhibitor, single point]"
COc1ccc(-c2nc3c(C)cc(Br)cn3c2Cc2cccc(F)c2)cc1OC,,"inconclusive: 25.9 µM [inhibitor, single point]"
COc1ccc(C(=O)NCC(=O)OC2CCCCC2=O)cc1 (stereo not given),inactive: 5.12%,
CCCCNc1c(-c2ccc(-c3cccc(Cl)c3)cc2)nc2ccccn12,,"inconclusive: 37.2 µM [inhibitor, single point] and inconclusive: 20.6 µM [inhibitor, single point]"
CC(=O)c1ccc(Sc2nnnn2-c2ccccc2)c([N+](=O)[O-])c1,,active: 2.31 µM
CN(C)/C=N/c1nc(-c2ccc3ccccc3c2)cs1,inactive: -0.514%,
Cc1ccccc1C(=O)Nc1cccc(C(=O)OCc2cc(=O)n3nc(C4CC4)sc3n2)c1,,"inconclusive: 2.31 µM [inhibitor, full curve, poor fit]"
CC(CCc1ccc(O)cc1)NC1C2CC3CC(C2)CC1C3 (stereo not given),,"inconclusive: 18.4 µM [inhibitor, single point]"
COc1ccc(CNC(=O)C2CC(c3ccc(C(F)(F)F)cc3)=NO2)cc1 (stereo not given),,active: 11.6 µM
O=C(O)c1ccc2nc(-c3ccco3)c(-c3ccco3)nc2c1,inactive: -23.9%,
O=C(C1Cc2ccccc2CN1S(=O)(=O)c1cccs1)N1CCCCCC1 (stereo not given),inconclusive: -33.7% [inhibitor],
CN(C)c1ccc(-c2ccc3ncnc(-n4ccnc4)c3c2)cc1,,"inconclusive: 29.1 µM [inhibitor, single point]"
CC(C)(CN1CCN(c2ccccc2)CC1)NS(=O)(=O)c1ccccc1,,"inconclusive: 29.1 µM [inhibitor, single point]"
COc1ccc(C(=O)C2CCCN(C(=O)c3cc(C4CC4)[nH]n3)C2)c(C)c1 (stereo not given),inconclusive: -31.4% [inhibitor],
CC(C)(C)c1ccc(S(=O)(=O)NCc2ccc(C(=O)N3CCOCC3)cc2)cc1,,"inconclusive: 16.4 µM [inhibitor, partial curve]"
Clc1ccccc1OCc1nnc(-c2ccccc2)o1,,"inconclusive: 23.1 µM [inhibitor, single point]"
O=C(NC12CC3CC(CC(C3)C1)C2)c1ccc(-c2ccc(Cl)cc2)o1,,active: 18.4 µM
Cc1cc(C)cc(N(CC(=O)NCc2ccco2)S(=O)(=O)c2c(C)noc2C)c1,inactive: -24.3%,

SMILES,"activity change, negative = growth inhibition",Potency
CCN1CCN(S(=O)(=O)c2ccc(Cl)c(C(=O)N(C)C3CCCCC3)c2)CC1,,"inconclusive: 16.4 µM [inhibitor, single point]"
COc1ccc(CNC(=O)C(C)Cc2ccccc2)cc1O (stereo not given),inactive: -15.3%,
Cc1nc2ccccn2c1C(=O)Nc1ccc(Cl)cc1,inconclusive: -35.6% [inhibitor],
Cc1ccc(C)c(CN2C(=O)c3ccccc3Sc3ccc(C(=O)NCc4ccc5c(c4)OCO5)cc32)c1,inactive: -14.3%,
Cc1nc(NC(=O)COC(=O)c2cccs2)c(Cl)cc1Cl,inactive: -2.87%,
N#CC1C=Cc2c(ccc3ccccc23)N1C(=O)c1ccccc1 (stereo not given),,active: 0.92 µM
CC(=O)Nc1cc(NC(C)=O)cc(C(=O)NCC2(N3CCOCC3)CCCCC2)c1,inactive: 3.16%,
Cc1occc1-c1nnc(SCC(=O)Nc2nccs2)n1CCc1ccccc1,,active: 18.4 µM
COc1ccc([C@H]2CC(=O)C=C(c3ccc(SC)cc3)C2)cc1OC,,active: 14.6 µM
C=CCC[C@H](Cc1ccc(F)cc1)C(=O)OC[C@@H](Cc1c[nH]c2ccccc12)NC(=O)[C@H](CC=C)CC(=O)N[C@H](CO)Cc1ccccc1,,active: 20.6 µM
CC/C=C/C(=O)N1CC2(CC(c3cccc(NC(=O)CC(c4ccccc4)c4ccccc4)c3)=NO2)C[C@@H]1C(N)=O (stereo not given in full),,active: 16.4 µM
CCCOc1ccc(NC(=O)CC2C(=O)N(Cc3ccccc3)C(=S)N2Cc2cccs2)cc1 (stereo not given),,active: 20.6 µM
O=C(C(=NNc1ccccc1)c1ccccc1)c1ccccc1,,"inconclusive: 29.1 µM [inhibitor, single point]"
O=C(COC(=O)COc1ccccc1[N+](=O)[O-])Nc1ccccc1Br,inactive: -13.8%,
Cc1ccc([N+](=O)[O-])cc1S(=O)(=O)N1CCn2cccc2C1c1ccc(F)c(F)c1 (stereo not given),,"inconclusive: 20.6 µM [inhibitor, single point]"
CN(C)c1ccc(CCc2ccnc3ccccc23)cc1,,active: 14.1 µM
CCCCCCNC(=O)O[C@H]1C[C@H](C(=O)OC)[C@H](C(=O)OC)C2CN(S(=O)(=O)c3ccc(C)cc3)C[C@@]21O (stereo not given in full),,"inconclusive: 25.9 µM [inhibitor, single point]"
CN1CC(=O)NC1=NC(=O)c1ccc(Cl)c(S(=O)(=O)N2CCCCCC2)c1,,active: 8.2 µM
Cc1ccc(C(=O)CC(C(=O)O)n2cnc([N+](=O)[O-])n2)cc1 (stereo not given),,"inconclusive: 5.17 µM [inhibitor, single point]"
COc1ccc(OC(C)C(=O)N(C)Cc2nc(-c3ccccc3)no2)cc1 (stereo not given),,"inconclusive: 29.1 µM [inhibitor, single point]"
Cc1cc2c(cc1C)-c1nnnn1C(N1CCC(Cc3ccccc3)CC1)C(=O)N2 (stereo not given),,active: 9.2 µM
CC(C)(C)N1C(=O)c2c(C(=O)OCc3ccccc3)[nH]c(-c3ccccc3)c2C1=O,inactive: -7.09%,
CC(=O)c1cccc(NC(=O)c2ccc3nc(C(C)C)oc3c2)c1,,active: 16.4 µM
CCn1c(SCC(=O)N2CCOCC2)nc2c([nH]c3ccccc32)c1=O,inactive: 0%,
COc1ccc(C(=O)NC(C)c2ccc(-n3ccnc3)cc2)cc1S(=O)(=O)N1CCOCC1 (stereo not given),inactive: -26.5%,

SMILES,"activity change, negative = growth inhibition",Potency
Cn1c(-c2sc3cc(C(F)(F)F)cnc3c2-c2ccccn2)n[nH]c1=S,,"inconclusive: 29.1 µM [inhibitor, single point]"
CCOc1ccc2oc(C(=O)Nc3nccs3)c(C)c2c1,inactive: -19.6%,
COc1ccc(C)cc1NC(=O)C(OC(=O)C1CC1)c1ccccc1 (stereo not given),,"inconclusive: 16.4 µM [inhibitor, single point]"
O=C(NCc1cccc(Cl)c1)C1Cc2c(-c3ccc(Cl)cc3)ccnc2O1 (stereo not given),,"inconclusive: 29.1 µM [inhibitor, single point]"
CN(Cc1cnn(C)c1)C(=O)C1CCC(=O)N(Cc2cccc(C(F)(F)F)c2)C1 (stereo not given),inactive: -9.9%,
NC(=O)CSc1nnc(-c2ccccc2)c(-c2ccccc2)n1,inactive: 1.99%,
CC(C)Cn1c(-c2cc(Br)ccc2F)nc2c1c(=O)[nH]c(=O)n2CC(C)C,,"inconclusive: 18.4 µM [inhibitor, single point]"
O=C(NCCc1cccs1)C1CC(c2ccc([N+](=O)[O-])cc2)=NO1 (stereo not given),,"inconclusive: 29.1 µM [inhibitor, single point]"
Cc1cccc2cc(CNCCCN3CCCC3=O)c(N3CCN4CCCC4C3)nc12 (stereo not given),,"inconclusive: 18.4 µM [inhibitor, single point]"
COc1ccc(-c2cc(C(F)F)n3ncc(C(=O)Nc4c(C)n(C)n(-c5ccccc5)c4=O)c3n2)cc1,,active: 11.6 µM
O=Cc1ccccc1Oc1nc(N2CCOCC2)nc(N2CCOCC2)n1,,"inconclusive: 16.4 µM [inhibitor, single point]"
CC(=O)Nc1cnc(/C=C\CCCO)cn1,inactive: -1.44%,
CC(Sc1ncnc2ccccc12)C(=O)Nc1ccc2c(c1)OCO2 (stereo not given),,"inconclusive: 25.9 µM [inhibitor, single point]"
Cc1cc2nc(SCCOC(=O)Nc3cccc(Cl)c3)nc(C)c2cc1C,inactive: -9.73%,
CCN(CC)c1ccc2c(c1)C(=O)N(C)C2=O,inactive: -29.6%,
COc1ccc(-c2nc(NC3=NCCCCC3)sc2C)cc1,,"inconclusive: 25.9 µM [inhibitor, single point]"
CC1=C(C(=O)N2CCOCC2)CC(CC(=O)NCCCCc2ccccc2)C(=O)N1Cc1ccc(F)cc1 (stereo not given),inconclusive: -32.7% [inhibitor],
Cc1ccc(CSc2nc3c(c(=O)[nH]2)C(c2cccc(F)c2F)CC(=O)N3)cc1 (stereo not given),,"inconclusive: 5.8 µM [inhibitor, full curve, poor fit]"
Cc1cc(Cl)ccc1OCC(=O)NCCC(=O)O,inconclusive: -12.2% [inhibitor],
CCOC(=O)c1cc(-c2ccc(OC)cc2)nn1Cc1ccccc1,,"inconclusive: 16.4 µM [inhibitor, single point]"
CCOc1ccc(S(=O)(=O)N2CCC(C(=O)N3CCOCC3)CC2)cc1C,inactive: -10.1%,
Cc1cccc(CC2CC(=O)N(c3nc4ccccc4s3)C2=O)c1 (stereo not given),inactive: 3.09%,
O=C(NC1CCCCC1)C12CC3CC(C1)CC(n1cncn1)(C3)C2,inactive: -0.7%,
COc1ccccc1-n1nnnc1SCC(=O)NC1CCCCC1,inactive: -15.4%,
CN(Cc1cccs1)C(=O)COc1cccc(-n2cnnn2)c1,,"inconclusive: 0.0058 µM [inhibitor, full curve, poor fit]"
